The chains are these.
B1: 86280069_86281328_2581_CDS_ENSG00000068654_ENST00000263857|human|control|control (ssRNA)
RNA: GGGAGUUCUACAGUCCGACGAUCAUAGUGCGCCUUGUCCAGCACUCCGCAGAGCAGCUCCCCUUCCCUGAUGAUCACCUGGGACUCGCACAUCGAGUCAGGGUUAAAGCCAGGAACGGAUCGAGGAGUUUCCUUCACCCAGGCCAACAGAGGAUUGAGCAUCA
B2: chr12:105536279:105536280:+_ENSG00000136051_ENST00000332180|hu_mus|hu_hu_hu_mus_True|1_8 (ssRNA)
RNA: GGGAGUUCUACAGUCCGACGAUCAGCACUGAACAUGUAAUGUAAUCUGGCUGCAUCGACAGCAUUUUCAUAUACAUCAUCUAAAUAAAUCGGGAAGACAGCGCGAUGCCAGUAUAAAAAACAGCAGUCACAUUGUGUUUGGACCAACAGAGGAUUGAGCAUCA
B3: chrX:140365796:140365797:-_ENSMUSG00000031285_ENSMUST00000033642|mus_mus|mus_mus_mus_hu_False|1_38 (ssRNA)
RNA: GGGAGUUCUACAGUCCGACGAUCCUUCUCAUUACUCAGUGCCUGCAAGGUUCUGGUUCGGUAGAAGCUACAGUGGGCGCUGUGAGUGGGGCUAGGCAGUCCAUUCAUCCGGGAGCCUCGCAUGUUCCUGGAUGUCUUGUCUCGCAACAGAGGAUUGAGCAUCA
B4: chr1:24083500:24083501:+_ENSG00000011007_ENST00000418390|hu_hu|FALSE|FALSE (ssRNA)
RNA: GGGAGUUCUACAGUCCGACGAUCACUGCUGGUGCUUGGGCCAUCAUAGGCCGGCUCCUCAGGGCUGGGGUUAAAGCUGAUGCUACUGGCGGAAGCAUGGCUGCUUCCCAUGGGGUACGGGGCUGGCUUGAUCUUGAUUUUCUCCAACAGAGGAUUGAGCAUCA
B5: chr6:30692278:30692279:+_ENSG00000196230_ENST00000327892|hu_hu|motif|central (ssRNA)
RNA: GGGAGUUCUACAGUCCGACGAUCCCAGAGUGGAAAGAGAGAGGAGACAUUCAACAAACAAGUAUUUAUUGAGCGCCGGCGGUGUGCCAGGCACUGUUCUAGACCCCCCCCAGAAGAAAAAACAAAAAACAAGAUAGAGGCAGCCAACAGAGGAUUGAGCAUCA
B6: chr12:74934348:74934349:+_ENSG00000253719_ENST00000519948|hu_mus|FALSE|FALSE (ssRNA)
RNA: GGGAGUUCUACAGUCCGACGAUCUUUUUUAGCUCCUGCCAAGGUUUUACUCACGUUCUCAAAAUUCUUGGACUAAGGAUCCAAACUGUAACUAGGCCCCAACCCUGAGCUGCAAAACUCUGAGAAGGCAACAACAGACAGUCUCAACAGAGGAUUGAGCAUCA
B7: chr8:59494266:59494267:+_ENSG00000137575_ENST00000447182|hu_mus|FALSE|FALSE (ssRNA)
RNA: GGGAGUUCUACAGUCCGACGAUCAGCCGUGAUGCAUUGUACAAGGGUUUAAACUUCAGGAAUGGUGUGAUCCAUCAGGCUUUUCAUAAUGCUGGGAGCCAUCCGUUUAAUAAUGUGUUCGAAGAUAAAAGUAGGCAUGAUUGUCAACAGAGGAUUGAGCAUCA
B8: 31789926_31820491_1316_CDS_ENSMUSG00000020300_ENSMUST00000109412|mouse|control|control (ssRNA)
RNA: GGGAGUUCUACAGUCCGACGAUCUGACCCCAGACCACUAUGAAGAGGUUGAUCCCCACGGCCAUCAUCCAGGAAUCCAUCUUCCAUCGGAAACAAUGAAGACUGACCUCUCCUUCGCCCAUAAGUCCUUGCUUUAAUGGAAUCCAACAGAGGAUUGAGCAUCA
B9: chr3:100366718:100366719:-_ENSMUSG00000008763_ENSMUST00000008907|mus_mus|FALSE|FALSE (ssRNA)
RNA: GGGAGUUCUACAGUCCGACGAUCGACAAACAUCACAGGAAGCUUACUGCCCAUCAGGCUUGGCACACCACAACAUAGAUGCUAGCAAGAUGAUACCACAGACUUGUACCUUUCGUGAGUCCUGCAGUUGCUGAUUGACUGUUACAACAGAGGAUUGAGCAUCA
B10: chr1:225611761:225611762:-_ENSG00000143815_ENST00000272163|hu_mus|hu_hu_hu_mus_True|48_78 (ssRNA)
RNA: GGGAGUUCUACAGUCCGACGAUCCCAGGCCAUCGGCCUCUGACCACUUCACCCUCAGCAAAUUUCCUACUUGGCAUUUUCUAAAAUUAACCUGCGCGCGCUCCGGCGGGAACUCCAGCCACUCCAGGACAGUCACCAGCAGCCCAACAGAGGAUUGAGCAUCA
B11: 17629441_17629561_2928_CDS_ENSG00000124789_ENST00000262077|human|control|control (ssRNA)
RNA: GGGAGUUCUACAGUCCGACGAUCAGUUAAAGAAACUGGGUUGCUUAAACCAGAAGAAAGUCCAAACUUAAAAUUAUCAUUCUUACUAUCUUUUUUAACUUCUUCGGGCUUAGAUUCAGAUGAAACUCCAAAUUUAAAAUCUCCCAACAGAGGAUUGAGCAUCA
B12: chr8:17156679:17156680:-_ENSG00000003987_ENST00000180173|hu_hu|motif|central (ssRNA)
RNA: GGGAGUUCUACAGUCCGACGAUCAUACUUAAAUUCAUAUGUAAGACCAGGAGAAUGAAUGUUGCUUCUACCUCGUUAGCGGUUAAAUCAGUGUUAGAGAAAAAGUGAGAUACAAGGUUUAGCAUUUUUAAAUAAUGAGGAGAACAACAGAGGAUUGAGCAUCA
B13: chr17:57752078:57752079:+_ENSG00000141367_ENST00000269122|hu_mus|FALSE|FALSE (ssRNA)
RNA: GGGAGUUCUACAGUCCGACGAUCAAUCAAAUUUUUAAUGACAUCUUCAGAGCAGUCAACAUCCAGCAAUCCUCCAAUAACCACAGGAAGUCGACUUGGAUUUACCUUCUGGACAUAUAUCUCUAUAUACUUCUGAAGAUUGUUCAACAGAGGAUUGAGCAUCA
B14: chr7:35913284:35913285:+_ENSG00000122545_ENST00000399035|perfect_dup|motif|central (ssRNA)
RNA: GGGAGUUCUACAGUCCGACGAUCAUCAGGCAUCUGACGUCUGUUCACUCGAGAUUCUGCAUUUAAGUAAUCUUCAAAUUUACGGUCAAUGUAGUCGAUAACAGGCUGCCAGCAAUUACUAUUAUCCACUGCAUCUCCAAAUCCCAACAGAGGAUUGAGCAUCA
B15: chr22:19452774:19452775:-_ENSG00000070010_ENST00000399523|hu_hu|hu_hu_hu_mus_False|18_38 (ssRNA)
RNA: GGGAGUUCUACAGUCCGACGAUCCUUCUCAUUGUAGUUGAUAGCAAUCACAUCUCCAGUCGUCAGACAGGCGAAGUUUCUCAAUGCAUUUUCUAAUACGGCUUUGGGGUUGGUAAUGUCCAGGAAGUCUGGGCUCUGAGGCUGCAACAGAGGAUUGAGCAUCA
B16: chrX:71549762:71549763:+_ENSMUSG00000019087_ENSMUST00000019231|mus_mus|mus_mus_mus_hu_False|18_108 (ssRNA)
RNA: GGGAGUUCUACAGUCCGACGAUCAAAGUGUACCACUUCUUAUUGUUAGCACAACAUCACCAGAAAACGAUAACGACAGCCAAGCAGGACAGACAGUUAAGUAGUACUUCCACACUCCGCAAAUUCAGGAGCCCUAUAACCUUACAACAGAGGAUUGAGCAUCA
B17: chr4:25749455:25749456:-_ENSG00000091490_ENST00000264868|hu_hu|hu_hu_hu_mus_False|28_48 (ssRNA)
RNA: GGGAGUUCUACAGUCCGACGAUCGCACUAUGACCUCUAGAAAAAUCCACAGGGGGAAAAAAUGUAAACCAAUGUACAAUGUUAUCGCCCUCCCUGCGUGUGGAGUGACAAACAAUUGGCUCCUUCUAGCUGCUGGAUUUGGGACAACAGAGGAUUGAGCAUCA
B18: chr3:131220538:131220539:-_ENSG00000114686_ENST00000264995|hu_hu|motif|central (ssRNA)
RNA: GGGAGUUCUACAGUCCGACGAUCUUCUUCAGAAAGAUGCUCAUCCCACCAUGUACCACUCUUUCCAUGAAGACCUCGGACAAAAAGCCAGAUGUGUGUUCUGUUCCCCGGGCCCAGGGCAGCACCCAGGCCGUCCCCGAGUCGCAACAGAGGAUUGAGCAUCA
B19: chr1:39494564:39494565:+_ENSG00000168653_ENST00000372967|hu_hu|hu_hu_hu_mus_True|1_58 (ssRNA)
RNA: GGGAGUUCUACAGUCCGACGAUCAUGCAUUCGCCUCAUCGUUUUGUACCGAAGCAAGCACUCUUCGAAGUCAUCGAAUUCUAUCUUGCACUCCUUUUUCGCCCGGGUCCCACCGAUCCCGUGUGCACACUCUAUCCAUUCUUUCAACAGAGGAUUGAGCAUCA
B20: 33966644_33966764_1915_CDS_ENSG00000006125_ENST00000262325|human|control|control (ssRNA)
RNA: GGGAGUUCUACAGUCCGACGAUCGUGAAAACCCUCCAGGAAGCUUUCUAGUAACUCAUCUGCAUUGUCAAUUCUUUCAGCAUAUUCUCCCACAAUCCAAAUCAUAGCUGCUCGAGCAUCUGGCUCAUCCAGCGAGUCUAAGUUCAACAGAGGAUUGAGCAUCA
B21: chr18:67804014:67804015:+_ENSMUSG00000024537_ENSMUST00000025418|mus_mus|FALSE|FALSE (ssRNA)
RNA: GGGAGUUCUACAGUCCGACGAUCGCAAUCAGUAUAGAAAUAACCAAUCUUACACAUGUUCAGUGUAGAAAUAAUCAGAUCUAUUGCAAGCUGGCCAACAUUUCCAACGGAUACUGCUGGCAUCAGGAGUGUAAAGUUCGUUAGCAACAGAGGAUUGAGCAUCA
B22: chr4:115894766:115894767:+_ENSMUSG00000028698_ENSMUST00000030464|mus_hu|mus_mus_mus_hu_True|1_38 (ssRNA)
RNA: GGGAGUUCUACAGUCCGACGAUCUUCCACACGGAAAUGUACUUCGGGUUUUCCAACGGCCAGUACCAGUCCGGCCAAACUACCCGAACAGGGUCCUGUCCUCCUCUCCUACAGAACACAACAAAAUGCCCCCGAACCCCGAACCAACAGAGGAUUGAGCAUCA

Some of the results follow.

The experiment has as its target T1, UNK ZnF1-3 (human, UniProt Q9C0B0 31-174).
T1 sequence: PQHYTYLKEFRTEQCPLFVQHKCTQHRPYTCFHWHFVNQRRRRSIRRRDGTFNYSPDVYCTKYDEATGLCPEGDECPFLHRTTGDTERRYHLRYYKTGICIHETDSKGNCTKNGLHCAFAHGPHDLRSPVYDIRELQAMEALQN
Kind of experiment: nsRBNS (natural sequence RNA bind-n-seq); RBNS binding buffer (assumed for nsRBNS): 25 mM Tris pH 7.5, 150 mM KCl, 3 mM MgCl2, 0.01% Triton X-100, 500 ug/ml BSA, 20 U/ml SUPERase-In, 4 C; UNK is unkempt and MSI1 is Musashi-1; names of the RNAs are library labels; protein concentration not given here; high values mean tight binding.
For the molecule B1, the binding signal was found to be 0.856 enrichment R.
B2 had a binding signal of 2.71 enrichment R.
Molecule B3 showed a binding signal of 0.5 enrichment R.
B4 returned a binding signal of 0.629 enrichment R.
Under B5 stands 2.25 enrichment R; under B6, 1.37 enrichment R.
For the molecule B7, the binding signal was 2.12 enrichment R.
B8 returned a binding signal of 0.887 enrichment R.
Under B9 stands 1.22 enrichment R; under B10, 1.52 enrichment R.
With B11, the binding signal is 1.43 enrichment R.
The same measure for B12: 1.34 enrichment R; for B13: 0.639 enrichment R.
B14 had a binding signal of 1.1 enrichment R.
Under B15 stands 0.73 enrichment R; under B16, 1.52 enrichment R; under B17, 1.06 enrichment R.
B18: the binding signal stood at 1.34 enrichment R.
The same measure for B19: 0.694 enrichment R; for B20: 1.07 enrichment R.
The molecule B21 gave a binding signal of 0.804 enrichment R.
Under B22 stands 1.11 enrichment R.
